{"source": "paper PMC13083723", "about": "(Patterns, 2026)", "note": "The campaign covered roughly 5,400 compounds. About 190 (3.5%) showed an effect of 50% or more. The list shows a part of the results.", "data": [{"test_system": "Vero-E6", "assay": "primary screen, phospholipidosis by LipidTOX staining; higher = more effect of the substance", "conditions": "10 µM", "outline": "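Single-concentration screen at 10 μM, with DMSO 0.1 v/v % and amiodarone 10 μM as controls. Read-out is LipidTOX Red phospholipid staining, which tolerates aldehyde fixation, in Vero-E6 cells.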", "units": {"result_ITMP": "%"}, "values": [{"smiles": "CCCN(CCC)C(=O)Cc1c(-c2ccc(Cl)cc2)nc2ccc(Cl)cn12", "result_ITMP": 0.29}, {"smiles": "O=C1Nc2ccccc2C12OCC1(CO2)COC2(OC1)C(=O)Nc1ccccc12", "note": "(stereo not drawn)", "result_ITMP": -0.48}, {"smiles": "O=C(CC1CC(c2ccc(F)cc2F)=NO1)N1CCOCC1", "note": "(racemic)", "result_ITMP": -0.02}, {"smiles": "Nc1cccc2c1C(=O)N(C1CCC(=O)NC1=O)C2=O", "note": "(stereo not drawn)", "result_ITMP": -6.7}, {"smiles": "COc1cc(O)c(C(=O)c2ccccc2)cc1S(=O)(=O)O", "result_ITMP": -6.3}, {"smiles": "Cc1ncc(COP(=O)([O-])O)c(CN(CCN(CC(=O)[O-])Cc2c(COP(=O)(O)O)cnc(C)c2[O-])CC(=O)[O-])c1[O-].[Mn+2]", "result_ITMP": -10.5}, {"smiles": "COc1ccc(C(C)(C)C)cc1CN[C@H]1C2CCN(CC2)[C@H]1C(c1ccccc1)c1ccccc1", "result_ITMP": 1.79}, {"smiles": "CC(C)(C)c1onc(O)c1CC(N)C(=O)O", "note": "(stereo not drawn)", "result_ITMP": -0.91}, {"smiles": "COC(=O)C1=C(C)NC(C)=C(C(=O)NCCCN2CCC(c3ccccc3)(c3ccccc3)CC2)C1c1ccc([N+](=O)[O-])cc1", "note": "(stereo not drawn)", "result_ITMP": 60.6}, {"smiles": "COC1C(OC(=O)NC(=O)CCl)CCC2(CO2)C1C1(C)OC1CC=C(C)C", "note": "(stereo not drawn)", "result_ITMP": 11.3}, {"smiles": "Oc1ccc(OC2CCCCO2)cc1", "note": "(stereo not drawn)", "result_ITMP": 1.15}, {"smiles": "O=C(NCC(=O)N1CC[C@H](N[C@H]2CC[C@@](O)(c3ccc(-c4ncccn4)cn3)CC2)C1)c1cccc(C(F)(F)F)c1", "result_ITMP": -0.29}, {"smiles": "NCCc1cc(O)c(O)cc1O", "result_ITMP": -5.61}, {"smiles": "N[C@@H](Cc1cc(I)c(Oc2cc(I)c(O)c(I)c2)c(I)c1)C(=O)O", "result_ITMP": -2.31}, {"smiles": "CC1(C)CCC(C)(C)c2cc(NC(=O)c3ccc(C(=O)O)cc3)ccc21", "result_ITMP": -5.64}, {"smiles": "COc1cc(C(=O)O)ccc1NC(=O)[C@@H]1N[C@@H](CC(C)(C)C)[C@](C#N)(c2ccc(Cl)cc2F)[C@H]1c1cccc(Cl)c1F", "result_ITMP": 40.5}, {"smiles": "CC(C(=O)O)c1ccc2c(c1)Cc1ccccc1-2", "note": "(stereo not drawn)", "result_ITMP": -1.32}, {"smiles": "Cc1ccc(CC2(O)CCN(CCOc3ccc(O)cc3)CC2)cc1", "result_ITMP": -3.85}, {"smiles": "O[C@@H]1[C@H](O)[C@@H](CCl)O[C@H]1n1cnc2c(NC3CC4CCC3C4)ncnc21", "note": "(mixture of isomers)", "result_ITMP": -1.27}, {"smiles": "OCC(O)COc1ccc(Cl)cc1", "note": "(stereo not drawn)", "result_ITMP": -3.26}, {"smiles": "CC(C)=CCC[C@]1(C)C=Cc2c(O)c3c(c(CC=C(C)C)c2O1)O[C@]12C(=C[C@@H]4C[C@H]1C(C)(C)O[C@@]2(C/C=C(/C)C(=O)O)C4=O)C3=O", "result_ITMP": -0.51}, {"smiles": "CN[C@@H](C)C(=O)N[C@H](C(=O)N1CCC[C@H]1C(=O)N[C@H]1c2ccccc2C[C@H]1OCC#CC#CCO[C@@H]1Cc2ccccc2[C@@H]1NC(=O)[C@@H]1CCCN1C(=O)[C@@H](NC(=O)[C@H](C)NC)C1CCCCC1)C1CCCCC1", "result_ITMP": 0.22}, {"smiles": "O=C(O)CSc1nnc(Br)n1-c1ccc(C2CC2)c2ccccc12", "result_ITMP": 6.9}, {"smiles": "C1CCN2C[C@@H]3C[C@H](CN4CCCC[C@@H]34)[C@H]2C1", "result_ITMP": 0.11}, {"smiles": "NCCCCCC(O)(P(=O)([O-])O)P(=O)(O)O", "result_ITMP": -0.14}, {"smiles": "OC(CN1CCC(Cc2ccc(F)cc2)CC1)c1ccc(Cl)cc1", "note": "(stereo not drawn)", "result_ITMP": 0.68}, {"smiles": "C[C@H]1O[C@@H](O[C@H]2CC[C@@]3(C)[C@H](CC[C@@H]4[C@@H]3C[C@@H](O)[C@]3(C)[C@@H](C5=CC(=O)OC5)CC[C@]43O)C2)C[C@H](O)[C@@H]1O[C@H]1C[C@H](O)[C@H](O[C@H]2C[C@H](O)[C@H](O[C@@H]3O[C@H](CO)[C@@H](O)[C@H](O)[C@H]3O)[C@@H](C)O2)[C@@H](C)O1", "result_ITMP": -9.7}, {"smiles": "O=P(O)(NCCCl)NCCCl", "result_ITMP": -1.62}, {"smiles": "O=C(O)CCCCC(=O)O", "result_ITMP": -6.15}, {"smiles": "CCOC(=O)CCNc1cc(N2CCc3ccccc3CC2)nc(-c2ccccn2)n1", "result_ITMP": -7}, {"smiles": "Cn1c(COc2ccc(CC3SC(=O)NC3=O)cc2)nc2ccccc2c1=O", "note": "(stereo not drawn)", "result_ITMP": -0.39}, {"smiles": "COc1cc2c(Nc3ccc(Cl)c(Cl)c3F)ncnc2cc1OC[C@@H]1C[C@@H]2CN(C)C[C@@H]2C1", "result_ITMP": 55.5}, {"smiles": "Cc1cc(=O)oc2c(C=O)c(O)ccc12", "result_ITMP": -9.22}, {"smiles": "Cc1cc(C(=O)N2Cc3cnn(C)c3Nc3ccccc32)ccc1CNC(=O)N1CCC[C@H]1C(=S)N1CCCN(C)CC1", "result_ITMP": -9.06}, {"smiles": "CC(C)C(N)=O", "result_ITMP": -3.55}, {"smiles": "CC(C)c1ccc(NC(=O)Cn2cnc3c2c(=O)n(C)c(=O)n3C)cc1", "result_ITMP": -4.51}, {"smiles": "O=C(O)c1cc(O)c2c3nc4ccccc4oc-3cc(=O)c2n1", "result_ITMP": -7.78}, {"smiles": "C[C@H](NC(=O)/C(C#N)=C/c1cccc(Br)n1)c1ccccc1", "result_ITMP": -3.24}, {"smiles": "O=C(NCCN1CCN(c2ncccn2)CC1)C12CC3CC(CC(C3)C1)C2", "result_ITMP": -4.43}, {"smiles": "Cc1ccccc1NC(=N)Nc1ccccc1C", "result_ITMP": 3.35}, {"smiles": "CC[N+](CC)(CCCNC1=CC(=O)C(NCCC[N+](CC)(CC)Cc2ccccc2)=CC1=O)Cc1ccccc1", "result_ITMP": 1.27}, {"smiles": "CCNC(=O)c1[nH]nc(-c2cc(Cl)c(O)cc2O)c1-c1ccc(OC)cc1", "result_ITMP": -3.87}, {"smiles": "CCC(CC)n1ccc2c(C(=O)NCc3c(C)cc(C)[nH]c3=O)cc(C#N)cc21", "result_ITMP": 0.08}, {"smiles": "NC[C@@H]1O[C@H](O[C@H]2[C@@H](O)[C@H](O[C@@H]3[C@@H](O)[C@H](N)C[C@H](N)[C@H]3O[C@H]3O[C@H](CO)[C@@H](O)[C@H](O)[C@H]3N)O[C@@H]2CO)[C@H](N)[C@@H](O)[C@@H]1O", "result_ITMP": -1.27}, {"smiles": "Cc1c(C2CCN(CCc3ccccc3)CC2)noc1-c1ccc(Cl)cc1", "result_ITMP": 48.8}, {"smiles": "O=C/C=C/c1ccccc1", "result_ITMP": -3.17}, {"smiles": "C=C1/C(=C\\C=C2/CCC[C@]3(C)[C@@H]([C@H](C)CC[C@@H](O)C(C)C)CC[C@@H]23)C[C@@H](O)C[C@@H]1O", "result_ITMP": -2.08}, {"smiles": "CCCC(CCC)C(N)=O", "result_ITMP": 0.56}, {"smiles": "CCCCCOc1c(OC)ccc2cc(C(=O)NCc3ccc4c(c3)OCO4)c(=O)[nH]c12", "result_ITMP": -2.62}, {"smiles": "CC[C@@]1(O)C(=O)OCc2c1cc1n(c2=O)Cc2cc3ccccc3nc2-1", "result_ITMP": -4.42}, {"smiles": "CCN(CCNC(=O)Nc1ccccc1Br)c1cccc(C)c1", "result_ITMP": -1.32}, {"smiles": "CCNC(=O)Nc1ccc(-c2nc3c(c(N4CCOC[C@@H]4C)n2)CCN(C2COC2)C3)cc1", "result_ITMP": 9.83}, {"smiles": "CC(OC(=O)OC1CCCCC1)OC(=O)C1=C(CSc2nnnn2CCN(C)C)CS[C@@H]2[C@H](NC(=O)Cc3csc(N)n3)C(=O)N12", "note": "(stereo partly drawn)", "result_ITMP": -7.73}, {"smiles": "O=C(O)c1ccccc1NC(=O)C12CC3CC(CC(C3)C1)C2", "result_ITMP": -4.05}, {"smiles": "CCCN(CCC)S(=O)(=O)c1ccc(C(=O)O)cc1", "result_ITMP": -3.55}, {"smiles": "CCOC(=O)[C@@H](C)Oc1ccc(Oc2nc3ccc(Cl)cc3o2)cc1", "result_ITMP": -2.21}, {"smiles": "CC(C)(C)NCC(O)COc1ccc(NC(=O)NC2CCCCC2)cc1", "note": "(stereo not drawn)", "result_ITMP": -4.12}, {"smiles": "CC(C1=C(CCN(C)C)Cc2ccccc21)c1ccccn1", "note": "(stereo not drawn)", "result_ITMP": 10.3}, {"smiles": "COc1ccncc1C(=O)NC(=O)Nc1ccc(-c2ccccc2)c(C(F)(F)F)c1", "result_ITMP": 0.32}, {"smiles": "Nc1nccc(/C=C/c2ccccc2)n1", "result_ITMP": -2.33}, {"smiles": "O=C1NC(=O)c2c1c1c3ccccc3[nH]c1c1[nH]c3ccccc3c21", "result_ITMP": -10.6}, {"smiles": "OC(c1ccccc1)(c1ccccc1)C12CC[N+](CCOCc3ccccc3)(CC1)CC2", "result_ITMP": -0.61}, {"smiles": "COc1cc2c3cc1Oc1cc(ccc1O)C[C@@H]1c4c(cc(OC)c(O)c4Oc4ccc(cc4)C[C@@H]3N(C)CC2)CC[N+]1(C)C", "result_ITMP": -3.39}, {"smiles": "CC(CCc1ccccc1)NC(C)C(O)c1ccc(O)cc1", "note": "(stereo not drawn)", "result_ITMP": 18.6}, {"smiles": "CS(=O)CCCCN=C=S", "note": "(stereo not drawn)", "result_ITMP": 4.51}, {"smiles": "Cc1ncc(CO)c(CO)c1O", "result_ITMP": 2.41}, {"smiles": "O=C(O)c1ccc(-c2c[nH]c3ncc(-c4ccccc4)cc23)cc1C1CCCC1", "result_ITMP": 0.91}, {"smiles": "CN1CCc2cc(Cl)c(O)cc2[C@@H](c2ccccc2)C1", "result_ITMP": 1.73}, {"smiles": "C[C@]12C=CC(=O)C=C1CC[C@@H]1[C@@H]2CC[C@]2(C)OC(=O)CC[C@@H]12", "result_ITMP": -2.34}, {"smiles": "NC(=O)c1nc(Nc2ccccc2)sc1NC(=O)C1CCCCC1", "result_ITMP": -5.89}, {"smiles": "C=CC(=O)Nc1cc(Nc2nccc(-c3c[nH]c4ccccc34)n2)c(OC)cc1N(C)CCN(C)C", "result_ITMP": 40.6}, {"smiles": "O=[N+]([O-])c1cncn1CCN1CCOCC1", "result_ITMP": -2.15}, {"smiles": "C=CC(=O)Nc1cc(Nc2nccc(-c3cn(C)c4ccccc34)n2)c(OC)cc1N(C)CCN(C)C", "result_ITMP": 38.1}, {"smiles": "C#Cc1cccc(Nc2ncnc3cc4c(cc23)OCCOCCOCCO4)c1", "result_ITMP": 12.6}, {"smiles": "Cc1ccc(NCCCc2ccccc2)c(N)c1", "result_ITMP": -2.41}, {"smiles": "CCc1c(C)[nH]c2c1C(=O)C(CN1CCOCC1)CC2", "note": "(stereo not drawn)", "result_ITMP": 3.76}, {"smiles": "COc1cc(NC(=O)c2cccc(-n3cc(NC(=O)Nc4cccc(C)c4)cn3)c2)cc(OC)c1OC", "result_ITMP": -5.83}, {"smiles": "NC(=O)CNCCC(c1ccccc1)c1ccccc1", "result_ITMP": -0.08}, {"smiles": "COc1cc(C(=O)NCCCCCC(=O)O)cc(OC)c1OC", "result_ITMP": -0.54}, {"smiles": "CC1=C(C(=O)O)N2C(=O)[C@@H](NC(=O)[C@H](N)C3=CCC=CC3)[C@H]2SC1", "result_ITMP": -1.83}, {"smiles": "N[C@@H](CCC(=O)N[C@@H](CS)C(=O)NCC(=O)O)C(=O)O", "result_ITMP": -0.05}, {"smiles": "CCCN(C/C=C/I)C1CCc2ccc(O)cc2C1", "note": "(stereo not drawn)", "result_ITMP": 2.45}, {"smiles": "N#CC(c1ccccc1)(c1ccccc1)c1ccccc1Cl", "result_ITMP": -3.02}, {"smiles": "Cc1ncc(CO)c(/C=N/NC(=O)c2ccncc2)c1O", "result_ITMP": -0.03}, {"smiles": "NC(=O)CN1C[C@H](O)CC1=O", "result_ITMP": -0.97}, {"smiles": "Nc1nc(NC2CC2)cc(-c2cccc(Cl)c2Cl)n1", "result_ITMP": -0.91}, {"smiles": "CC1Sc2c(C(=O)O)c(=O)c3cc(F)c(N4CCNCC4)cc3n21", "note": "(stereo not drawn)", "result_ITMP": -2}]}]}
